Results from PubChem BioAssay AID463173 (ICCB-Longwood Screening Facility, Harvard Medical School, 2010).
The whole screen tested about 52,000 compounds, of which about 1,700 (3.3%) were called active. Rule as the data show it: active = survival mostly below about 52% (no sharp cut-off); inactive = mostly above about 56%. The list shows a part of the results.

These molecules were tested on Wild type (assay: growth inhibition of S. aureus wild type versus tarO mutant, primary screen, teichoic acid synthesis inhibitors, RN4220, OD600 (AID 463173)). Settings: S. aureus RN4220 wild type/DeltatarO growth, OD600, 18 h, active compounds read low, screened at 18.75 µg/mL (by protocol).
CCOc1ccc(NC(=O)CN2CCN(CC(=O)Nc3ccc(F)cc3F)CC2)cc1 was tested, and the survival was inactive: 73%. For CCCN1Cc2cccc(C(=O)Nc3ccccc3C(=O)OC)c2C1=O, the survival was inactive: 136%. In the case of COc1cc(C(=O)N2CCN(C(=O)COc3cccc(C)c3)CC2)cc(OC)c1OC, the survival is reported as inactive: 96%. In the case of COc1ccc(N2CCN(C(=O)c3cnn(-c4ccc(OC)cc4)c3C3CCN(C(=O)OC(C)(C)C)CC3)CC2)cc1, the survival is reported as inactive: 92%. For O=C(Nc1c[nH]c2cc(Cl)ccc2c1=O)N1CCCCC1, the survival was inactive: 85%. In the case of COc1ccc(Cc2nc3c4cnn(-c5cccc(F)c5)c4ncn3n2)cc1, the survival is reported as inactive: 87%. COC(=O)c1c(NC(=O)COc2cccc(C(F)(F)F)c2)sc2c1CCCC2 was tested, and the survival was inactive: 72%. With Cc1cccc(C(=O)N(Cc2ccccc2F)C2CCS(=O)(=O)C2)c1 (stereo not drawn) the survival was inactive: 92%. With Cc1c(Cl)cccc1-c1ccc(/C=C(\C#N)c2nc3ccccc3[nH]2)o1 the survival was active: 8%. CCCCOc1cccc(C(=O)N2CCN(CCc3ccncc3)CC2)c1 was tested, and the survival was inactive: 88%. With CCCNC(=O)N1CCCN(S(=O)(=O)c2ccc3c(ccn3CC)c2)CC1 the survival was inactive: 71%. CCN(CC)c1ccc(NS(=O)(=O)c2cc(-c3cc(C)no3)ccc2C)c(C)c1 was tested, and the survival was inactive: 127%. For Cc1cc(S(=O)(=O)Nc2ccc(O)c(Sc3nc4ccccc4s3)c2)ccc1Cl, the survival was active: -2%. CCc1nn(CC(=O)NCCOC)c(=O)c2cc3cc(F)ccc3n12 was tested, and the survival was inactive: 78%. With CCOC(=O)c1c(NC(=O)c2ccc(S(=O)(=O)N(CC)CC)cc2)sc2c1CCCCC2 the survival was inactive: 80%. O=C(Nc1cccc(C(F)(F)F)c1)Nc1ccc2snnc2c1 was tested, and the survival was active: 29%. Cc1ccc(CCNC(=O)CN(c2ccc(C(C)C)cc2)S(=O)(=O)c2c(C)nn(C)c2C)cc1 was tested, and the survival was inactive: 86%. CCN(CC)C(=O)CSc1nc2cc3c(cc2c(=O)n1CCCC(=O)NCc1ccc(OC)cc1)OCO3 was tested, and the survival was inactive: 82%. In the case of CCc1ccc(CN(Cc2cn[nH]c2-c2ccc(OC)cc2)C(=O)Nc2ccc(Br)cc2)cc1, the survival is reported as inactive: 83%. For CN(C)c1ccc(C(CNS(=O)(=O)c2ccc(F)cc2F)N2CCOCC2)cc1 (stereo not drawn), the survival was inactive: 69%. For CCOC(=O)c1ccc(Nc2nc3nonc3nc2NCc2ccco2)cc1, the survival was inactive: 35%. For O=C(NCCC1=CCCCC1)c1ccc2c(c1)N(Cc1ccccc1)C(=O)c1ccccc1S2=O (stereo not drawn), the survival was inactive: 94%. With CCn1c(SCC(=O)Nc2c(C)cccc2C)nnc1-c1nonc1NC(C)=O the survival was inactive: 131%. For Cc1ccc(C(=O)N2CCCCC2CCN2CCCCC2)cc1 (stereo not drawn), the survival was inactive: 86%. In the case of COc1ccc(CCN(Cc2cc3cc(C)ccc3[nH]c2=O)C(=O)N2CCCC2)cc1OC, the survival is reported as inactive: 100%. CCOC(=O)c1[nH]c(=O)[nH]c1CSC(=N)N was tested, and the survival was inactive: 101%. In the case of CN(C)C(=O)C1Cc2ccccc2CN1S(=O)(=O)c1ccc(F)cc1 (stereo not drawn), the survival is reported as inactive: 105%. In the case of CCS(=O)(=O)c1cccc(C(=O)Nc2ccc(-c3nc4ccccc4s3)c(O)c2)c1, the survival is reported as inactive: 87%. Cc1cccc(NC(=O)Cn2c(=O)c3cccn3c3ccccc32)c1C was tested, and the survival was inactive: 92%. In the case of COc1ccc(-c2csc(-c3c(N)c(C(=O)c4ccccc4)n4ccccc34)n2)cc1OC, the survival is reported as inactive: 67%. For CCNC(=S)N1CCN(c2ccccc2)CC1, the survival was inactive: 118%. For COc1ccccc1N1CCN(C(=O)CSc2nc3ccccc3nc2Cc2ccc(C)cc2)CC1, the survival was inactive: 65%. For COc1cc(NS(=O)(=O)c2cc(Br)cc3c2N(C(=O)C2CC2)CC3)cc(OC)c1, the survival was inactive: 124%. In the case of CCN(CCCNC(=O)c1nn(-c2ccc(OC)c(Cl)c2)c(=O)c2c1c1ccccc1n2C)c1ccccc1, the survival is reported as inactive: 84%. O=C(O)c1ccc2c3c(ncnc13)-c1ccccc1C2=O was tested, and the survival was inactive: 101%. With COc1ccc(OC)c(CNC(=O)CSc2c3c(nc4cc(Cl)ccc24)CCCC3)c1 the survival was inactive: 80%. Cc1ccc(CN2CCN(C3CCN(S(=O)(=O)N(C)C)CC3)C(=O)C2=O)cc1 was tested, and the survival was inactive: 85%. For CC1(C)OC(=O)CC1C(=O)O (stereo not drawn), the survival was inactive: 108%. In the case of CC1CCN(C(=O)Cn2c(SCC(=O)Nc3ccc(F)cc3)nc3ccccc32)CC1, the survival is reported as inactive: 70%. In the case of Cc1ccc(-c2csc(C(C#N)=C3CCCC3)n2)cc1, the survival is reported as inactive: 103%. CCOC(=O)C1=C(CN2CCN(C)CC2)NC(=O)NC1c1ccc(F)cc1 (stereo not drawn) was tested, and the survival was inactive: 71%. CC(C)c1ccc(OCC(=O)NCC(c2ccc(Cl)cc2)N2CCOCC2)cc1 (stereo not drawn) was tested, and the survival was inactive: 81%. For CCN(Cc1ccccc1)C(=O)Cn1c(=O)n(-c2cccc(C)c2)c(=O)c2c1c1cc(OC)ccc1n2C, the survival was inactive: 77%. COc1cccc(C(=O)NC2CC3CCCC(C2)N3CC(=O)Nc2ccc(N(C)C)cc2)c1 (stereo not drawn) was tested, and the survival was inactive: 106%. Cc1nc2c(C(=O)NCCc3ccc(Cl)cc3)cnn2c(C)c1Cc1ccc(F)cc1 was tested, and the survival was inactive: 73%. With CC(C)NC(=O)C1CCN(C(=O)c2cnn(-c3ccccc3)c2-n2cccc2)CC1 the survival was inactive: 76%. For CNc1nc2c(c(=O)n(C)c(=O)n2C)n1CC(O)COc1ccc(OC)cc1 (stereo not drawn), the survival was inactive: 70%. With CN(C(=O)c1cc2nc(-c3ccc4c(c3)OCO4)cc(C(F)(F)F)n2n1)c1ccc(OC(F)(F)F)cc1 the survival was inactive: 75%. In the case of Cn1nc(C(=O)NCCc2ccc(Cl)cc2)c2c1-c1ccccc1SC2, the survival is reported as inactive: 82%. CCCSc1nc2sc3c(c2c(=O)n1-c1ccc(C)c(Cl)c1)CCN(C(C)=O)C3 was tested, and the survival was inactive: 87%. For CCOC(=O)C1C(=O)C=C(c2ccc(NS(C)(=O)=O)cc2)CC1c1ccco1 (stereo not drawn), the survival was inactive: 106%. In the case of CSc1nnc2n(-c3cccc(C)c3)c(=O)c3c4c(sc3n12)CCCC4, the survival is reported as inactive: 79%. In the case of Cc1cccc(-c2nnc(SCC(=O)N3CCCCC3)o2)c1, the survival is reported as inactive: 118%. For O=C(Nc1ccccc1F)c1oc2ccccc2c1NC(=O)c1c(F)cccc1F, the survival was inactive: 53%. With Cc1cccn2c(=O)cc(COc3cccc(NC(=O)c4cccc(Cl)c4)c3)nc12 the survival was inactive: 136%. For COc1ccc(S(=O)(=O)c2c(O)c(C)cc(NC(=O)c3ccccc3)c2C(C)C)cc1, the survival was inactive: 85%. COc1ccccc1N1CCN(C(=O)c2ccc(Nc3nc4ccccc4n4nnnc34)cc2)CC1 was tested, and the survival was inactive: 91%. In the case of CCn1c(=O)n(CC)c2cc(N3CCCC3)c(NC(=O)Nc3cc(C)cc(C)c3)cc21, the survival is reported as inactive: 63%. In the case of Cc1ccc(CNC(=O)c2nn(C)c3c2CSc2ccc(C)cc2-3)cc1, the survival is reported as inactive: 59%. With Cc1ccc(CCNC(=O)CSCc2nc(-c3ccc(C)cc3)oc2C)cc1 the survival was inactive: 27%. COC(=O)c1ccccc1NC(=O)c1ccc(=O)n(Cc2cccc(C)c2)c1 was tested, and the survival was inactive: 71%. For N#Cc1cccc(NC(=O)C2CCN(c3nc(-c4ccc(Cl)cc4)no3)CC2)c1, the survival was inactive: 99%. Cc1c(C(=O)Nc2cccc(-c3nc4ccccc4s3)c2)oc2ccc(F)cc12 was tested, and the survival was inactive: 75%. In the case of Cc1cccc(NC(=O)CC2Nc3ccccc3NC2=O)c1 (stereo not drawn), the survival is reported as inactive: 128%. COc1cc(-c2nc(C(N)=O)c3c(n2)n(-c2cccc(C)c2)c(=O)n3C)cc(OC)c1OC was tested, and the survival was inactive: 69%. For CCn1c(CN2CCCCC2)nc2cc(NC(=O)c3cccc([N+](=O)[O-])c3)ccc21, the survival was inactive: 84%. CC(C)c1ccc(NC(=O)Cn2c3ncccc3c(=O)n2-c2ccccc2)cc1 was tested, and the survival was inactive: 74%. In the case of CCOc1ccc(-c2nnc(SCC(=O)Nc3cc(C)ccc3OC)o2)cc1, the survival is reported as inactive: 77%. CCC(=O)N1CCc2cc(CNC(=O)c3cccc(N(C)C)c3)ccc21 was tested, and the survival was inactive: 82%. COc1ccc(C(=O)NCc2ccc3c(c2)CCN3C(C)=O)c(OC)c1 was tested, and the survival was inactive: 115%. With Cc1ccccc1NC(=O)C1CCN(S(=O)(=O)c2c(C)noc2/C=C/c2ccco2)CC1 the survival was inactive: 81%. CCc1ccccc1NC(=O)Cn1nc(CC)n2c(cc3sccc32)c1=O was tested, and the survival was inactive: 86%. In the case of CCc1ccccc1N1C(=O)CN(S(=O)(=O)CC)CC1(C)C(=O)NC1CCCCC1 (stereo not drawn), the survival is reported as inactive: 124%. In the case of CCC(=O)OC1=C(C(C)=O)N(Cc2ccccc2)S(=O)(=O)c2ccccc21, the survival is reported as inactive: 71%. In the case of Cc1ccc(Cn2c(SCc3ccc(C(=O)N4CCCCC4)cc3)nc3ccncc32)cc1, the survival is reported as inactive: 35%. For COc1cccc(C(c2nnnn2CCC(C)C)N2CCN(Cc3ccccc3)CC2)c1OC (stereo not drawn), the survival was inactive: 113%. In the case of Cc1ccc(-c2c3c(=O)n(C)c(=O)n(C)c3c3n2-c2ccccc2NC3c2ccc(C)cc2O)cc1 (stereo not drawn), the survival is reported as active: -8%. In the case of COc1ccc(-c2cc(C(=O)N3CCCCC3C)no2)cc1OC (stereo not drawn), the survival is reported as inactive: 70%. For CCOc1ccc(OCC)c(NC(=O)c2nnn(CC(=O)Nc3cc(Cl)ccc3OC)c2N)c1, the survival was inactive: 71%. In the case of Cc1ccc(Cl)cc1N1CCN(S(=O)(=O)c2cn(C)c(C)n2)CC1, the survival is reported as inactive: 65%. With O=C(COc1ccccc1)Nc1nnc(S(=O)(=O)Nc2ccccc2)s1 the survival was inactive: 84%. In the case of CN(C(=O)CSc1nc(-c2ccccc2)no1)c1ccc(F)cc1, the survival is reported as inactive: 72%. COc1ccc(C(=O)c2sc3nc4c(c(C(F)(F)F)c3c2N)CN(C(C)=O)CC4)cc1OC was tested, and the survival was inactive: 82%. With CC1CCCCN1CCCNC(=O)CN1C(=O)c2cccnc2Oc2ccc(Cl)cc21 (stereo not drawn) the survival was inactive: 68%. For CCOc1ccccc1C1C(C(=O)Nc2ccccc2)=C(C)Nc2nc(SCC(=O)c3ccc(C)cc3)nn21 (stereo not drawn), the survival was inactive: 73%. In the case of O=C(c1ccc(Cl)cc1)N1CCN(CCc2ccncc2)CC1, the survival is reported as inactive: 113%. CCOc1ccccc1NC(=O)Nc1nnc(N2CCCC(C)C2)s1 (stereo not drawn) was tested, and the survival was inactive: 87%. With Cc1ccc(-c2nnc(Nc3cccc(Cl)c3)c3ccccc23)cc1S(=O)(=O)N1CCN(C)CC1 the survival was inactive: 68%.
